Source: publication PMC4336329 (PLoS ONE, 2015)
Out of some 310,000 compounds screened, about 2,200 (0.71%) showed an effect of 50% or more. The effect is printed as a negative number. The list shows a part of the results.

Biological target: human ether-à-go-go-related gene (hERG) potassium channel (human, UniProt Q12809)
Test: primary screen, population patch clamp on CHO cells stably expressing hERG

Chain of human ether-à-go-go-related gene (hERG) potassium channel (Q12809 whole entry, looked up): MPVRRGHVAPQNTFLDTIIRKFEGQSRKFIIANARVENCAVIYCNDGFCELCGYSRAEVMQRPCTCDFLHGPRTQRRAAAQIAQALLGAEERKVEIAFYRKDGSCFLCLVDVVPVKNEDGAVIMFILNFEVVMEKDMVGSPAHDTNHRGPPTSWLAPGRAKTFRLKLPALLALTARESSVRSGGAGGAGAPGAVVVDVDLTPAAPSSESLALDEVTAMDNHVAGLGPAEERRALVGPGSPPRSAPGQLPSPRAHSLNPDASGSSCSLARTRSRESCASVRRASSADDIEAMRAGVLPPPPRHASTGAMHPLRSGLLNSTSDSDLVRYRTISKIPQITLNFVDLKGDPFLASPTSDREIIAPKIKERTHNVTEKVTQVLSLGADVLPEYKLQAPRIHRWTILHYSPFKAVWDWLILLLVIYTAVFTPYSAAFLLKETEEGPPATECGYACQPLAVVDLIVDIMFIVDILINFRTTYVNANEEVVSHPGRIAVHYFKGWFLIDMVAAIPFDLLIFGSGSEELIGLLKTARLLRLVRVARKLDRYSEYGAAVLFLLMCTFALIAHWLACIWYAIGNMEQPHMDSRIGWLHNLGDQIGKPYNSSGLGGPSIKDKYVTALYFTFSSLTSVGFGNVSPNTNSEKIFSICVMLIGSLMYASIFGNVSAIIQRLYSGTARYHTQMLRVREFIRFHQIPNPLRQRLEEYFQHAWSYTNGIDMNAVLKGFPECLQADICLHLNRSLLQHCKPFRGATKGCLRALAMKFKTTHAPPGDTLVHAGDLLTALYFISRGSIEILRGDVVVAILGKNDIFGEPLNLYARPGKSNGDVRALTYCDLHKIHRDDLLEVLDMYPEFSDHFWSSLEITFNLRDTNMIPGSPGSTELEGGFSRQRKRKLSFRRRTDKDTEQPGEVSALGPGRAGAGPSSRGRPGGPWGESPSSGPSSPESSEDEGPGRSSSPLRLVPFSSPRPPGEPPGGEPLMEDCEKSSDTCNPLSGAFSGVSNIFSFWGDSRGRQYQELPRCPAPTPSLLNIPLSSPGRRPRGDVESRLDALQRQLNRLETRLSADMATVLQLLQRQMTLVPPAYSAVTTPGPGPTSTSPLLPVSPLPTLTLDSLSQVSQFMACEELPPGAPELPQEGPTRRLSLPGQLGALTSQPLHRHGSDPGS

Structure (SMILES) | hERG current change (%, negative = inhibition) at 1uM
O=S(=O)(Nc1cc(F)ccc1F)c1cccc2nsnc12 | 14.5%
Cc1ccc(-c2nnc(SCC(=O)NC3CCCc4ccccc43)n2N)cc1 (stereo not shown) | 0.864%
Cc1ccc(S(=O)(=O)N(C)Cc2ccc(C(=O)NN=C(CC(C)C)CC(C)C)cc2)cc1 | 7.58%
CN1CCN(C(=S)c2ccc(-c3cccc(Cl)c3Cl)o2)CC1 | 7.56%
COc1ccc2nc(NC(=O)C3CC(=O)N(c4ccccc4)C3)sc2c1 (stereo not shown) | 4.67%
O=C(CSc1nnc(-c2ccccc2)o1)NC1CC1 | 13.6%
Cc1ccc(C)c(NC(=O)Cn2nc([N+](=O)[O-])c(Br)c2C)c1 | 15.8%
COc1cccc(C(=O)Oc2cc(C)[nH]c(=O)c2[N+](=O)[O-])c1OC | 11.9%
COc1ccccc1C(=O)NC(=S)Nc1ccc(Cc2ccncc2)cc1 | 14.5%
CCOC(=O)c1sc2nc(C)nc(Nc3ccccc3)c2c1C.Cl | 11.3%
O=C(N/C(=C/c1cn(-c2ccccc2)nc1-c1ccccc1)C(=O)N1CCOCC1)c1ccc(Cl)cc1Cl | 24.2%
CC1CN(C(=O)N2CCOCC2)CCN1C(=O)N1CCOCC1 (stereo not shown) | 9.95%
CS(=O)(=O)N(CC(=O)N1CCc2ccccc2C1)c1ccccc1F | 7.9%
O=S(=O)(c1cccc(-c2nc3ccccc3s2)c1)N1CCCC1 | 2.25%
CCCC(=O)c1c(NCCO)cc(C)oc1=O | 6.13%
CS(=O)(=O)c1cccc(C(=O)OCC(=O)NCc2cccs2)c1 | 8.1%
Cc1ccc(S(=O)(=O)N(C)C)cc1NC(=O)Cn1c(CN2CCOCC2)nc2ccccc2c1=O | 12.6%
O=c1[nH]c2cc3c(cc2cc1CN(Cc1nnnn1CC1CCCO1)C1CCCC1)OCO3 (stereo not shown) | 4.94%
Cc1cc(-c2ccc(Cl)cc2)n2nc(N)nc2n1 | 7.56%
COc1ccc(N/C=C(\C#N)S(=O)(=O)c2ccc(OC)cc2)cc1 | 13.8%
Cc1ccc(C(=O)NCC(=O)OCC(=O)NC2CCS(=O)(=O)C2)cc1C (stereo not shown) | 3.28%
Cc1c(-c2ccccc2)[n+](=O)c2c(n1[O-])CCCCC2 | 11.2%
CCn1cc(C(=O)OCC(=O)c2cc(C)n(-c3ccccc3F)c2C)c(=O)c2ccc(C)nc21 | 1.48%

Structure (SMILES) | hERG current change (%, negative = inhibition) at 1uM
Cc1ccc(C(=O)NCCc2nnc3ccc(SCC(=O)N4CCCC4)nn23)cc1 | 9.81%
O=C(NCc1ccon1)C1CCC(=O)N(CCc2ccc(Cl)cc2)C1 (stereo not shown) | 6.81%
CC(=O)N1CCc2cc(S(=O)(=O)N3CCc4ccccc4C3)ccc21 | 10.5%
Cc1ccc(OCC(=O)NNC(=O)c2ccccc2OCc2c(C)noc2C)cc1 | 4.63%
CC(C)Oc1ccc(C(CC(=O)O)n2cnnn2)cc1 (stereo not shown) | 20.6%
O=C(CCCCC(=O)N1CCOCCOCCOCC1)OCc1ccccc1 | 17.7%
CCOC(=O)c1c(O)cc(C)[nH]c1=O | 13.9%
COc1cccc(-c2noc(Cn3nc(C(=O)O)c4ccccc4c3=O)n2)c1 | 10.5%
CC1=NN(C(=O)COc2cc(C)ccc2C(C)C)C(O)(c2ccccc2)C1 (stereo not shown) | 15%
CCOC(=O)C(Cc1c[nH]c2ccccc12)NC(=O)CNC(C)=O (stereo not shown) | -3.07%
CCOc1ccc(NS(=O)(=O)c2ccc(C(=O)N3CCN(C(C)=O)CC3)cc2)cc1 | 6.49%
O=C1C2CCCCC2C(=O)N1c1ccc(S(=O)(=O)Nc2ncccn2)cc1 (stereo not shown) | 2.1%
C=CCS/C(=N\n1cnc2ccccc2c1=O)N1CCCCC1 | -16.2%
CN(c1ccccc1C(N)=O)S(=O)(=O)c1ccccc1 | 11.2%
Cl.O=C(Cc1ccccc1)NCCN1CCCC1 | 9.45%
Cc1ccccc1C(=O)OC(C)CN1CCN(C)CC1.Cl (stereo not shown) | 0.964%
Cc1cc(=O)n2nc(N3CCCC(C(=O)NCc4ccccc4C)C3)sc2n1 (stereo not shown) | 7.13%
C=CCNC(=O)NC(=O)COC(=O)/C=C/c1cccc([N+](=O)[O-])c1 | 7.33%
C=CCn1c2ccccc2c2nnc(SCc3ccc4nonc4c3)nc21 | 1.51%
CCc1cccc(C)c1NC(=O)Cn1c(NCCO)nc2ccccc21 | -4.42%
CCCCNC1C(CC)C(CCC)C(C#N)(C#N)C1(C#N)C#N (stereo not shown) | 0.734%
O=C(O)CCN=Cc1c(O)c2ccccc2oc1=O | 5.86%
Cc1ccc(NC(=O)N/C=C/c2ccco2)cc1C | -1.07%

Structure (SMILES) | hERG current change (%, negative = inhibition) at 1uM
C/C(=C/CCC(C)[C@H]1CC[C@@]2(C)C3=C(CC[C@]12C)[C@@]1(C)CCC(=O)C(C)(C)[C@@H]1CC3)C(=O)O (stereo partly shown) | 19.3%
COc1cc(Cl)cc(C(=O)O)c1OCC(=O)O | 4.19%
Cc1ccc(-n2c(SCc3cc(=O)n4ccsc4n3)nnc2-c2cccnc2)c(C)c1 | -11.7%
Cc1ccc(C(C)C)c(OCCNC(=O)c2ccccc2O)c1 | 9.71%
COC(=O)CCC(=O)NNC(=O)c1ccc([N+](=O)[O-])cc1 | 19.8%
CCc1ccccc1N1C(=O)c2ccccc2S1(=O)=O | 3.45%
COc1ccccc1NC1=NCC(=O)N1Cc1ccccc1 | 7.09%
CCOC(=O)N1CCN(S(=O)(=O)c2c(C(=O)N3CCCCC3)c(C)n(C)c2C)CC1 | 6.25%
Cl.OCCN(CC#CC(O)(c1ccccc1)C1CCCC1)CCO (stereo not shown) | 9.86%
CCCCn1c(=O)[nH]c(=O)c2c1nc(-c1ccccn1)n2CC | 9.48%
COc1ccc(NC(=O)CSc2ccccc2)cc1S(=O)(=O)N1CCCCC1 | 9.2%
OC1(c2ccc(Cl)cc2)CN(c2ccccc2)C2=[N+]1CCS2.[Br-] (stereo not shown) | -3.19%
CN(C(=O)CC1C(=O)NCCN1Cc1cccc(F)c1F)C1CCOCC1 (stereo not shown) | 12.8%
CCCOc1ccc(Br)cc1CSC(=N)N.Cl | 2%
O=C(CNC(=O)c1cccc(F)c1)N/N=C/c1cccc([N+](=O)[O-])c1 | -7.35%
O=C(NCC(=O)N1CCCC1C(=O)O)OC1CCCCC1 (stereo not shown) | 8.48%
O=C(NC1CCCCC1)C1CCN(S(=O)(=O)c2cccc3cccnc23)CC1 | 9.3%
CCc1ccc(N(CC)C(=O)Cc2c(C(=O)O)n(C)c3ccccc23)cc1 | 15.8%
Cc1ccc(Cc2c(C)nc3nc(SCC(=O)NCCCN4CCCC4)nn3c2C)cc1 | 5.57%
CC(C)NC(=O)NCCCCCCS(C)=O (stereo not shown) | 10.6%
COc1ccccc1-n1cnc2cc(NS(=O)(=O)c3ccccc3)ccc21 | 7.79%
COCCn1c(=S)[nH]c2ncccc2c1=O | 13.1%
CCSc1ccccc1C(=O)Nc1cc(C)on1 | 1.78%

Structure (SMILES) | hERG current change (%, negative = inhibition) at 1uM
NC(=O)CC(NC(=O)Cc1ccc(Br)cc1)c1ccc(N2CCN(c3ccccn3)CC2)c([N+](=O)[O-])c1 (stereo not shown) | 17.9%
O=C(Cc1ccccc1Cl)Nc1ccc(S(=O)(=O)Nc2nccs2)cc1 | 18%
CCC(=O)NCc1cc(-c2nn(C)c(=O)c3ccccc23)ccc1C | 10.9%
CCOC(=O)C1CCC(CNCc2ccccc2C)CC1.Cl (stereo not shown) | 9.13%
Cc1cccn2c(=O)c3cc(C(=O)NC4CCCCCC4)sc3nc12 | 15.1%
COc1ccc(OC)c(NC(=O)CCC(=O)Nc2nnc(C(F)(F)F)s2)c1 | 3.57%
Cc1ccnc(NS(=O)(=O)c2ccc(NC(=O)/C=C/c3ccccc3)cc2)n1 | 11.9%
Cc1nc2ccccc2n1CC(O)COCC1CC=CCC1 (stereo not shown) | 3.03%
CO/N=C\CC(=O)Nc1ccc(F)cc1 | 2.34%
CCOC(=O)c1ccc(N2C(=O)c3cccc4c(C(=O)O)ccc(c34)C2=O)cc1 | 13.2%
Cc1cc(C)n(-c2ccc(C(=O)Nc3cccnc3Cl)cc2)n1 | 7.99%
CCOc1cc(N2CCOCC2)c(OCC)cc1NC(=O)CN1C(=O)NC(Cc2ccccc2)C1=O (stereo not shown) | 0.111%
C=C(C)Cn1c(C2CC(=O)N(Cc3ccccc3)C2)nc2ccccc21 (stereo not shown) | -6.49%
Clc1ccc(Cl)c2sc(N3CCCC3)nc12 | 9.26%
Cc1ccc(N2C(=O)c3ccccc3C2(O)c2ncc[nH]2)cc1 (stereo not shown) | 17.7%
Cc1cc(N2CCCCC2)nc(N2CCCCC2)n1 | 2.91%
C=CCn1c(O)c(C=NCCCOc2ccc(CC)cc2)c(=O)[nH]c1=S | 9.6%
CC(O)CNc1nc2c(c(=O)n(Cc3ccc(Cl)c(Cl)c3)c(=O)n2C)n1C (stereo not shown) | 12%
C=CCOc1ccc2nc(NC(=O)OC)[nH]c2c1 | -1.78%
COc1ccc(N=C2SC(CC(=O)Nc3cccc(Cl)c3)C(=O)N2Cc2ccco2)cc1 (stereo not shown) | 4.66%
Cc1ccc(C2=NNC(C(O)C(O)C(O)CO)S2)cc1 (stereo not shown) | 9.85%
COc1ccc(C(=O)N2CCN(c3ccccc3)CC2)cc1S(=O)(=O)N1CCCC1 | 1.84%
